# Assay results: the supplement of paper PMC12217912
# This is one part of the list. The full chains were built here from the parent and the listed change. Values near 0.05 are background.
# B1: TEV protease; numbered along this chain (parent)
# chain: MGESLFKGPRDYNPISSSICHLTNESDGHTTSLYGIGFGPFIITNKHLFRRNNGTLVVQSLHGVFKVKDTTTLQQHLVDGRDMIIIRMPKDFPPFPQKLKFREPQREERICLVTTNFQTKSMSSMVSDTSCTFPSGDGIFWKHWIQTKDGQCGSPLVSTRDGFIVGIHSASNFTNTNNYFTSVPKNFMELLTNQEAQQWVSGWRLNADSVLWGGHKVFMVKPEEPFQPVKEATQL
# Variants of: B1
# Assay: raw area under fraction-flipped curve 0-4 h after induction (AUC4h, not background-subtracted), DNA-recorder readout of cleavage of the substrate (dimensionless); higher = more cleavage of the substrate by the protease variant
# Conditions: temperature: 34 °C; time window: 0-4 h after rhamnose induction
# Experimental: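 In vivo DNA recorder in E. coli TOP10(DE3) ΔrhaA at 34 °C. Each TEVp single-site mutant (parent TEVp 0) is paired with a single-site variant of the 7-mer TEVs (canonical ENLYFQ|S). The substrate sits between flexible linkers in a Bxb1-sfGFP-TEVs-SsrA fusion, so cleavage stabilises Bxb1 and speeds flipping of a recombination array, read by NGS. The value is the raw area under the fraction-flipped curve over 0-4 h after rhamnose induction (AUC4h), with ≥20 reads per time point. It is not background-subtracted; inactive controls average about 0.047.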
# 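Note: Bxb1 expression induced with 0.2% (w/v) L-rhamnose at OD600 near 0.5, cultures sampled hourly, flipped fraction per protease–substrate barcode pair counted by paired-end Illumina sequencing.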
Variant,area with substrate ENLYFQA,area with substrate ENLYFQC,area with substrate ENLYFQG,area with substrate ENLYFQH,area with substrate ENLYFQI,area with substrate ENLYFQK,area with substrate ENLYFQL,area with substrate ENLYFQM,area with substrate ENLYFQN,area with substrate ENLYFQR,area with substrate ENLYFQS,area with substrate ENLYFQT,area with substrate ENLYFQV,area with substrate ENLYFQW,area with substrate ENLYFQY,area with substrate ENLYFQE,area with substrate ENLYFQP,area with substrate ENLYFQQ,area with substrate ENLYFQD,area with substrate ENLYFQF
MGESLFKGPRDYNPISSSICHLTNESDGHTTSLYGIGFGPFIITNKHLFRRNNGTLVVQSLHGVFKVKDTTTLQQHLVDGRDMIIIRMPKDFPPFPQKLKFREPQREERICLVTTNFQTKSMSSMVSDTSCTFPSGDGIFWKHWIQTKDGQCGSPLVSTRDGFIVGIHSASNFTNTNNYFTSVPKNFKELLTNQEAQQWVSGWRLNADSVLWGGHKVFMVKPEEPFQPVKEATQL [M188K],0.0792,0.144,0.105,0.074,0.0559,0.0584,0.0593,0.0905,0.0584,0.0571,0.101,0.0685,0.0654,0.0395,0.0797,–,–,–,–,–
MGESLFKGPRDYNPISSSICHLTNESDGHTTSLYGIGFGPFIITNKHLFRRNNGTLVVQSLHGVFKVKDTTTLQQHLVDGRDMIIIRMPKDFPPFPQKLKFREPQREERICLVTTNFQTKSMSSMVSDTSCTFPSGDGIFWKHWIQTKDGQCGSPLVSTRDGFIVGIHSASNFTNTNNYFTSVPKNFGELLTNQEAQQWVSGWRLNADSVLWGGHKVFMVKPEEPFQPVKEATQL [M188G],0.143,0.116,–,–,0.0491,0.0614,0.0703,0.0866,0.0822,0.0055,0.1,0.0785,–,0.0578,–,0.0683,0.0407,0.0778,–,–
MGESLFKGPRDYNPISSSICHLTNESDGHTTSLYGIGFGPFIITNKHLFRRNNGTLVVQSLHGVFKVKDTTTLQQHLVDGRDMIIIRMPKDFPPFPQKLKFREPQREERICLVTTNFQTKSMSSMVSDTSCTFPSGDGIFWKHWIQTKDGQCGSPLVSTRDGFIVGIHSASNFTNTNNYFTSVPKNFMELWTNQEAQQWVSGWRLNADSVLWGGHKVFMVKPEEPFQPVKEATQL [L191W],0.0687,0.0967,–,–,0.0653,–,0.0487,–,0.0714,0.067,0.0836,–,–,0.0694,–,0.0758,–,0.0892,–,–
MGESLFKGPRDYNPISSSICHLTNESDGHTTSLYGIGFGPFIITNKHLFRRNNGTLVVQSLHGVFKVKDTTTLQQHLVDGRDMIIIRMPKDFPPFPQKLKFREPQREERICLVTTNFQTKSMSSMVSDTSCTFPSGDGIFWKHWIQTKDGQCGSPLVSTRDGFIVGIHSASNFTNTNNYFTSVPKNFMELHTNQEAQQWVSGWRLNADSVLWGGHKVFMVKPEEPFQPVKEATQL [L191H],0.0648,0.0639,0.0674,–,–,0.0505,0.0513,0.0398,0.0617,0.0554,0.0643,0.0438,–,0.0618,0.0575,0.0749,0.0629,–,–,–
MGESLFKGPRDYNPISSSICHLTNESDGHTTSLYGIGFGPFIITNKHLFRRNNGTLVVQSLHGVFKVKDTTTLQQHLVDGRDMIIIRMPKDFPPFPQKLKFREPQREERICLVTTNFQTKSMSSMVSDTSCTFPSGDGIFWKHWIQTKDGQCGSPLVSTRDGFIVGIHSASNFTNTNNYFTSVPKNFMELRTNQEAQQWVSGWRLNADSVLWGGHKVFMVKPEEPFQPVKEATQL [L191R],0.0667,0.0592,–,0.0619,0.0395,0.0555,0.0558,–,–,0.0347,0.0588,0.0523,0.0612,0.0543,–,–,0.0532,0.0482,–,–
MGESLFKGPRDYNPISSSICHLTNESDGHTTSLYGIGFGPFIITNKHLFRRNNGTLVVQSLHGVFKVKDTTTLQQHLVDGRDMIIIRMPKDFPPFPQKLKFREPQREERICLVTTNFQTKSMSSMVSDTSCTFPSGDGIFWKHWIQTKDGQCGSPLVSTRDGFIVGIHSASNFTNTNNYFTSVPKNFMELLTNDEAQQWVSGWRLNADSVLWGGHKVFMVKPEEPFQPVKEATQL [Q194D],0.101,0.124,0.111,–,0.0633,0.0604,0.0623,0.093,0.0747,0.0691,0.113,0.0705,–,0.0544,0.0571,–,0.0515,–,0.078,0.0973
MGESLFKGPRDYNPISSSICHLTNESDGHTTSLYGIGFGPFIITNKHLFRRNNGTLVVQSLHGVFKVKDTTTLQQHLVDGRDMIIIRMPKDFPPFPQKLKFREPQREERICLVTTNFQTKSMSSMVSDTSCTFPSGDGIFWKHWIQTKDGQCGSPLVSTRDGFIVGIHSASNFTNTNNYFTSVPKNFMELLTNQEAQQWVSGHRLNADSVLWGGHKVFMVKPEEPFQPVKEATQL [W203H],0.069,–,0.159,–,0.0527,0.0668,–,0.0814,0.0569,0.0591,0.0712,0.0563,0.0578,–,0.0774,–,–,0.0773,0.057,0.0576
MGESLFKGPRDYNPISSSICHLTNESDGHTTSLYGIGFGPFIITNKHLFRRNNGTLVVQSLHGVFKVKDTTTLQQHLVDGRDMIIIRMPKDFPPFPQKLKFREPQREERICLVTTNFQTKSMSSMVSDTSCTFPSGDGIFWKHWIQTKDGQCGSPLVSTRDGFIVGIHSASNFTNTNNYFTSVPKNFMELLTNQEAQQWVSGQRLNADSVLWGGHKVFMVKPEEPFQPVKEATQL [W203Q],0.0704,–,–,–,–,–,–,0.0588,0.0531,–,0.068,–,–,–,0.0593,–,0.0566,–,0.0627,–
